Assay results as given in US20060073154A1 (priority 2001, published 2006).

System: S. pyogenes strain D471 adherence to bovine submaxillary mucin
Settings: strain D471 preincubated with 25 mM sugar, 30 min at 37° C., washed; 1 μg mucin/well

SMILES | effect on adherence of strain D471 to bovine mucin compared to untreated bacteria | reduced adherence to bovine mucin compared to untreated bacterial control
CC(=O)N[C@H]1C(O)O[C@H](CO)[C@H](O)[C@@H]1O (some centres unmarked) [GalNAc, N-acetylgalactosamine] | did not significantly affect adherence | 
CC(=O)N[C@H]1C(O)O[C@H](CO)[C@@H](O)[C@@H]1O (some centres unmarked) [GlcNAc, N-acetylglucosamine] | doubled | 
C[C@H](O)[C@@H](O)[C@@H](O)[C@H](O)C=O [fucose, L-fucose] | did not significantly affect adherence | 
O=C[C@H](O)[C@@H](O)[C@@H](O)[C@H](O)CO [galactose, D-galactose] | did not significantly affect adherence | 
CC(=O)N[C@H]1[C@H]([C@H](O)[C@H](O)CO)OC(O)(C(=O)O)C[C@@H]1O (some centres unmarked) [sialic acid, N-acetylneuraminic acid] |  | 80%
